# Laboratory results as given in article PMC4336329 (PLoS ONE, 2015).
# About 2,200 (0.71%) of roughly 310,000 compounds showed an effect of 50% or more. The effect is printed as a negative number. The list shows a part of the results.
# Biological target: human ether-à-go-go-related gene (hERG) potassium channel (human, UniProt Q12809)
# Test: primary screen, population patch clamp on CHO cells stably expressing hERG
# Chain of human ether-à-go-go-related gene (hERG) potassium channel (Q12809 whole entry, looked up): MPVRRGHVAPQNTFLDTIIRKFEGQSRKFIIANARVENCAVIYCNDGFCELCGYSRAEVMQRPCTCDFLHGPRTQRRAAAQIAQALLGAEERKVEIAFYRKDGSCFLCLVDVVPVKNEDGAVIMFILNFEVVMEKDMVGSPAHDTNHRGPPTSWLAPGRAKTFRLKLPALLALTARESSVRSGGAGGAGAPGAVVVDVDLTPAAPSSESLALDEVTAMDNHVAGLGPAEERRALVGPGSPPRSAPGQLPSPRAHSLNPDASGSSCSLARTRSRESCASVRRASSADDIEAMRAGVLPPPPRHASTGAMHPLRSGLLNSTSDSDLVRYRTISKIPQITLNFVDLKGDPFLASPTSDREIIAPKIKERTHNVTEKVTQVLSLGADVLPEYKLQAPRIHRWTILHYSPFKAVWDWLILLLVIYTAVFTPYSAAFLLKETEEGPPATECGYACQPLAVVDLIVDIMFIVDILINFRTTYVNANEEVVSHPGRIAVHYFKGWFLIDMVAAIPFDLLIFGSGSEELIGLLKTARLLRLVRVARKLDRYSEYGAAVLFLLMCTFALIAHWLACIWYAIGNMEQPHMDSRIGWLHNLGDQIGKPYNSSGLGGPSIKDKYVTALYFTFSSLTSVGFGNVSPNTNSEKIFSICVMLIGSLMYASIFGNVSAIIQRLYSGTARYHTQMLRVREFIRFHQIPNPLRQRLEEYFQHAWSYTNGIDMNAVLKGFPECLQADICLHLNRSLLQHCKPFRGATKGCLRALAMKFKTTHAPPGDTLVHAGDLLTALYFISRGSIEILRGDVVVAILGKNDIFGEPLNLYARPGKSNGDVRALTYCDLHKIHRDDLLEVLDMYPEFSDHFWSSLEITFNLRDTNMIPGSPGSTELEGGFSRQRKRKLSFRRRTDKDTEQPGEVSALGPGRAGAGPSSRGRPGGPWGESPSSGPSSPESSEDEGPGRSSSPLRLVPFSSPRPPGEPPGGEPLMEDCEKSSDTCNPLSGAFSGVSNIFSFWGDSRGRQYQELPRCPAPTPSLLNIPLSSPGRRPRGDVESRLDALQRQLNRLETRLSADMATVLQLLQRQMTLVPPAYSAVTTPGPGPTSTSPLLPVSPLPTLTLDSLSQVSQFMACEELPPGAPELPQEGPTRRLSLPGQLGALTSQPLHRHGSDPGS
row,SMILES,"hERG current change (%, negative = inhibition) at 1uM [%]"
1,COC(=O)Nc1ccc(N=C(N)N[N+](=O)[O-])cc1,11.9
2,CN1CCN(C(=O)C2=C[C@@H](C3CC3)C[C@@H](OCc3ccc(CO)cc3)O2)CC1,17.7
3,CC(OC(=O)CCCN=C1NS(=O)(=O)c2ccccc21)C(=O)Nc1ccccc1[N+](=O)[O-] (centres unmarked),10.5
4,CC1(C)CC(=O)C2=C(C1)NC(SCC(N)=O)=C(C#N)C21CCCCC1,11.9
5,COc1cccc(N2CCN(Cc3ccsc3)CC2)c1,5.85
6,COc1cccc2cc(C(=O)NCc3ccco3)c(=Nc3ccc(C(=O)O)cc3)oc12,-1.82
7,O=C(CCn1c(=O)oc2ccccc21)Nc1cccc(Cl)c1,1.71
8,O=C(Oc1ccc2ccccc2c1Cl)N1CCCC1,3.62
9,COc1cc2c(cc1OC)C1(CCCC1)CNC2c1cccc([N+](=O)[O-])c1 (centres unmarked),-10.2
10,CCOc1ccc2ccccc2c1C(=O)N[C@@H]1C(=O)N2[C@@H]1SC(C)(C)[C@@H]2C(=O)[O-].[Na+],8.13
11,CCOC(=O)C1CCCN(C(=O)c2sc3nc(C)nc(N4CCOCC4)c3c2C)C1 (centres unmarked),9.16
12,CCC(=O)N1CCc2cc(S(=O)(=O)CCC(=O)NCCc3ccc(S(N)(=O)=O)cc3)ccc21,15.7
13,O=C(O)CNS(=O)(=O)c1cc(Cl)c(Cl)cc1Cl,13
14,CCC(C)[C@H](NS(=O)(=O)c1ccc(C)cc1)C(=O)N1CCC(C(=O)N[C@H](C(=O)O)c2ccccc2)CC1 (some centres unmarked),15.3
15,Cc1ccc2c(CN3CCN(Cc4ccc5c(c4)OCO5)CC3)cc(=O)oc2c1C,-4.32
16,Cc1cccc(NC(=O)CSc2ccc(-c3ccccn3)nn2)c1C,4.19
17,CCN(c1cccc2ccccc12)S(=O)(=O)c1ccc(Cl)nc1,3.11
18,O=C(NNc1cccc(Cl)n1)Nc1ccccc1,5.01
19,COCCn1c(C)cc(/C=C2/NC(=O)N(c3ccc(Cl)cc3)C2=O)c1C,7.62
20,Cc1ccc(CNC(=O)CCS(=O)(=O)c2ccc3c(c2)oc(=O)n3C)cc1,10.7
21,CCOc1ccc(/C=C2\CCc3ccccc3C2=O)cc1,15
22,COC1CCCCC1NCCc1ccccc1.O=C(O)C(=O)O (centres unmarked),5.61

row,SMILES,"hERG current change (%, negative = inhibition) at 1uM [%]"
1,Cc1ccc(S(=O)(=O)Nc2nc3ccccc3nc2Nc2cccc(S(=O)(=O)N3CCCC3)c2)cc1,9.48
2,CC1(c2cc([N+](=O)[O-])cc([N+](=O)[O-])c2)CC(C)(C)N(C(=O)c2ccccc2)c2ccccc21 (centres unmarked),13.4
3,CCCCn1c(N)c(N(CCC(C)C)C(=O)c2ccc3c(c2)OCO3)c(=O)[nH]c1=O,7.09
4,CCc1ccc(NC(=O)C2CCN(c3c(N4CCCC4)c(=O)c3=O)CC2)cc1,12.6
5,O=C(NCCN1CCCCCC1)c1ccc(CS(=O)(=O)c2ccc(Br)cc2)o1,-37.9
6,COc1ccc(/C=C(\C#N)C(=O)Nc2cc(C)c(Cl)cc2OC)cc1O,8.51
7,O=C1CN(C(=O)c2ccccn2)c2ccccc2N1,7.97
8,O=c1[nH]c2ccccc2n2cnnc12,17.8
9,CCCN(CCC)c1ccc(/C=C/c2ccc3cc(OCC)ccc3n2)cc1,4.1
10,CN1C(=O)C2C3c4ccccc4C(c4ccccc43)[C@@H]2C1=O (some centres unmarked),16.8
11,O=C1NC(=S)SC1=C1CCCCCC1,16.8
12,CCCS(=O)(=O)c1c(S(=O)(=O)CCC)c2cc(-c3ccncc3)ccn2c1C(=O)OC,-5.09
13,CCOc1ccc(N(CC(=O)NC2CCCCCC2)S(=O)(=O)c2ccccc2)cc1,-0.342
14,CCc1nc2sc3c(=O)n(N)cnc3c2c2c1COC(C)(C)C2,0.818
15,CCOc1ccc(CNC(=O)CCS(=O)(=O)c2ccc3c(c2)oc(=O)n3C)cc1,18.2
16,Cc1ccc(N=Cc2ccc[nH]2)c(O)c1,5.96
17,Cc1ccc(S(=O)(=O)N2CCN(C(=O)CN3C(=O)CNC3=O)CC2)cc1,7.34
18,O=C1/C(=C/c2cccnc2)SC(=S)N1N1CCOCC1,5.27
19,O=c1c2ccccc2oc2nc3n(c(=O)c12)CCCS3,12.9
20,O=C(CSc1cn(CCNC(=O)c2cccs2)c2ccccc12)NC1CCCCC1,8.93
21,COc1ccc(OC)c(-c2cc(C(=O)NCCN3CCOCC3)no2)c1,0.562
22,CCn1c(SCC(=O)NNC(=O)c2ccc(C)cc2)nnc1-c1ccncc1,-0.145

row,SMILES,"hERG current change (%, negative = inhibition) at 1uM [%]"
1,CCn1c(SCc2nc3sc(C(=O)O)c(C)c3c(=O)[nH]2)nnc1-c1ccc(Cl)cc1,7.84
2,O=C(C1CCCN(c2ncccn2)C1)N1CCc2ccccc21 (centres unmarked),-1.63
3,CC(=O)c1ccc(N2CCN(c3ncccn3)CC2)c([N+](=O)[O-])c1,4.76
4,Cc1cccc(NS(=O)(=O)c2ccc(C)c(C(=O)NCc3ccncc3)c2)c1,11
5,O=C(Nc1ccccc1)NC1CCN(Cc2ccccc2)CC1,-0.178
6,Cc1occc(=O)c1OC(=O)Nc1ccc(Cl)c(Cl)c1,12.6
7,COC(=O)C[C@H]1c2cc(C(F)(F)F)ccc2S(=O)(=O)N1C1CCCCC1,15.4
8,Cn1c(SCc2ccc([N+](=O)[O-])cc2)nnc1-c1ccncc1,-11.3
9,O=C(Cn1cnc2cc([N+](=O)[O-])ccc2c1=O)Nc1ccc(N2CCOCC2)cc1,4.05
10,COc1cc(CC(NC(C)=O)C(=O)NC2CCN(C(=O)c3cc(OC)c(OC)c(OC)c3)CC2)cc(OC)c1 (centres unmarked),-6.17
11,CC(C)NS(=O)(=O)c1ccc(CCC(=O)Nc2cc(Cl)ccc2Oc2ccccc2)cc1,12.3
12,O=C(NS(=O)(=O)c1ccc(Cl)s1)c1ccccc1,15.1
13,CCOc1ccc(C(C)=O)cc1COC(=O)c1ccc2c(c1)NC(=O)CS2,2.77
14,COC(=O)Nc1ccc(S(=O)(=O)N2CCCCCC2)cc1,9.77
15,O=C(CCCN1C(=O)/C(=C/c2ccccc2Cl)SC1=S)Nc1ccccn1,4.44
16,O=C1NC(c2ccccc2)(C(F)(F)F)C(=O)N1Cc1cccnc1 (centres unmarked),12.6
17,NC(=O)CC(NC(=O)Cc1ccc(Br)cc1)c1ccc(NC2CC3CCC2C3)c([N+](=O)[O-])c1 (centres unmarked),6.11
18,Cc1cc(C)nc(N=Nc2c(O)n(Cc3ccc(Cl)cc3)c3ccccc23)n1,11
19,CCN1C=CC(=C2C(=O)c3ccccc3C2=O)C=C1,-1.78
20,CCCCNC(=O)CCCCC(=O)N/N=C/c1ccccc1Cl,8.47
21,COc1c(Cl)cc(Cl)cc1CNc1ccc(S(N)(=O)=O)cc1,15.7
22,CCn1c(SCC(=O)N/N=C/c2c[nH]c3ccccc23)nnc1-c1ccc(C(C)(C)C)cc1,9.49

row,SMILES,"hERG current change (%, negative = inhibition) at 1uM [%]"
1,COC(=O)CSc1nnc(CNC(=O)c2ccccc2F)n1-c1ccccc1,8.18
2,COc1ccc(OC)c(/C=N/NC(=O)c2ccc3nc[nH]c3c2)c1,16
3,CCCC(c1nnnn1Cc1ccco1)N1CCN(c2cc(Cl)ccc2C)CC1.Cl (centres unmarked),2.96
4,O=S(=O)(/C=C/c1ccccc1)N1CCc2ccccc2C1,17.5
5,CN(C(=O)COC(=O)CCC(=O)c1ccc(Cl)cc1)c1c(N)n(Cc2ccccc2)c(=O)[nH]c1=O,-8.88
6,CC1=CCC2C(=O)N(c3ccc(C)cc3)C(=O)C2C1 (centres unmarked),4.21
7,Cc1cc(C)n(CC(C)NCc2cn[nH]c2-c2cccc3ccccc23)n1 (centres unmarked),5.94
8,Cc1c(NC(=O)c2ccccc2NC(=O)COc2ccccc2)cccc1C(=O)O,9.33
9,Cc1cc2occ(CC(=O)N(CCC(C)C)c3c(N)n(Cc4ccccc4)c(=O)[nH]c3=O)c2cc1C,6.09
10,CCOC(=O)c1c(NC(=O)CSc2nnc(-c3ccco3)o2)sc(C)c1C,-10.8
11,Brc1ccc(C2=CSC3=NCCN23)cc1,1.52
12,COc1ccc2oc(C(=O)OCC(=O)N3CCC(C)CC3)c(C)c2c1,9.44
13,Cc1ccc(OCCCCCCN2CCNCC2)c(Br)c1.O=C(O)C(=O)O,9.04
14,CCCn1c(SCC(=O)NC2CCCCC2)nnc1-c1ccncc1,7.5
15,CSc1ccc(S(=O)(=O)Nc2ccc(NC(C)=O)cc2)cc1,-0.665
16,CCc1ccc2[nH]c(=O)c(CN(CCCO)C(=O)NCc3ccccc3)cc2c1,0.119
17,COCCCn1c(=O)c2sccc2n2c(CCCC(=O)NCC3CCCO3)nnc12 (centres unmarked),14
18,CN1CCN(CC(=O)C23CC4CC(CC(C4)C2)C3)CC1.Cl,9.42
19,Cc1[nH]c2ccccc2c1-c1nc2ccccc2[nH]c1=O,16.1
20,CCOC(=O)c1ccc2nc(NC(=O)c3ccco3)sc2c1,11
